Results published in the supplement of paper PMC11417369.
± gives the standard deviation of the averaged measurements. The list shows a part of the results.

test system: PfAP2-EXP AP2 domain (GST-tagged); assay: gcPBM binding intensity (ln(normalized median fluorescence intensity)); higher = stronger DNA binding
How it was run: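 GST-fused DNA-binding domains of P. falciparum, expressed in E. coli, were applied at about 25 μg on average for 1 h to an Agilent 4 × 180k array of primer-extended double-stranded 36-bp intergenic genomic probes and negative controls. Binding intensity is the highest Masliner-normalised natural-log median intensity across replicate spots of either probe orientation, measured with Alexa488 anti-GST antibody and a 488 nm scan.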

Sequence | gcPBM binding intensity (ln)
AATAAACATAAATAAAAATTATAAAATATATATATG [CACACA_negctrl_site1709] | 8.38 ± 0.32
ATATATATATATATTACACACTTTTTCTTTTTTTTT [CACACA_site2780] | 10.1 ± 0.11
ATAATTCCAAGAATTTCATATATCTGAATTTTAGGT [GTGCAC_negctrl_site283] | 8.02 ± 0.4
TTTACATTTCAGTAGACACACAAAAAATAATACTAA [CACACA_site512] | 8.54 ± 0.47
AAAAAAAAATATACATATATATATATATATATATAT [CACACA_negctrl_site1763] | 10 ± 0.5
TATACACTTATTGGTGGTACAATATATAAATATATG [XGTACX_site3289] | 8.36 ± 0.23
CAAAAGTAAGCACGCACACACAACATGAAATAAAAT [CACACA_site165] | 8.9 ± 0.55
ATTAGTATAATGTAACTTAGTTAATAGTGCTAATAT [CACACA_negctrl_site764] | 8.65 ± 0.29
TATATATATATTTATACACACACATATATTTATATA [CACACA_site8054] | 9.47 ± 0.071
TTTTTAATATATTAGGTGCACAATAATACACTTTAT | 8.99 ± 0.19
AAAAAAAAAAAAAAAACACACACATGCACATCATAT [CACACA_site8083] | 8.95 ± 0.18
TATATTTATAACAACACACACAGATCATAAAACTGC [CACACA_site7086] | 8.79 ± 0.45
ACAAAATAAAACATCTGTACATATTATTATTATAAG [XGTACX_site4802] | 8.34 ± 0.35
AAAAAAAACACGCGCACACACACACCCACCCACCGA [CACACA_site2206] | 8.98 ± 0.54
GAAATATTTGTAAAAACATGCATGGTACTTTTAAAA [TGCATGCA_site6] | 9.01 ± 0.47
TACATACTAAAAAAATGTACTTGTATTGTTTTTTTA [XGTACX_site8357] | 8.31 ± 0.29
ACATAAGAATTTTTATGTACTCATAATATTTTATAT [XGTACX_site2398] | 8.15 ± 0.28
TTATTTAACGTATTCTCACACATATATATATATAAT [CACACA_site5226] | 8.64 ± 0.42
TATATATATATATACACATGCAAAAATTTTTAATTT [TGCATGCA_site82] | 10.2 ± 0.35

Sequence | gcPBM binding intensity (ln)
TTTCTATATGGATTTGCACACATAAAAATGCTTATA [CACACA_site8751] | 8.49 ± 0.23
TCTTTAATGATGTGTACACAAGAAAACATTGTTAAG [CACACA_site5299] | 8.98 ± 0.41
TAGAAGCATCATTTTACACACATGCAAATGTAAAAT [CACACA_site1893] | 8.68 ± 0.42
AAAAATAAGAGCGTAGCACACACGCATTTTATAAAT [CACACA_site8147] | 8.64 ± 0.47
TTATATTAATAATAAAGTACAAAAAATCATATATAA [XGTACX_site799] | 8.53 ± 0.33
TTATTGAACTTTTATAAAACCTGTATTATTATCTCT [CACACA_negctrl_site767] | 8.51 ± 0.41
TCCAGGCTACACTCTAGTACTCGTAGGGTTATGAGA [XGTACX_site4945] | 8.49 ± 0.46
TATTTCTTATTACATACACACATATACATATATGAC [CACACA_site3201] | 8.76 ± 0.54
ATATATATATATATATGTACATATGTTAGGATCAAA [XGTACX_site8626] | 10.2 ± 0.33
ATGACATATAAATATACACACATACGTAAGTATATT [CACACA_site5058] | 8.19 ± 0.44
AATGGTCTTTTCAACACACGTACATAAAAATATTAT [CACACA_site2571] | 8.77 ± 0.23
GTGGAATAATATATATGTACATATTTAAAATATTTA [XGTACX_site3499] | 8.64 ± 0.27
TAAAAGTATATATATACACACATAAATATATCTGTA [CACACA_site4537] | 8.34 ± 0.35
TGACAACATAGAGGGGCACACACATATATACATAAA [CACACA_site8550] | 8.73 ± 0.52
ATTTTTTTACAAAAATGTACACATGAAATATGTAAT [XGTACX_site1372] | 8.39 ± 0.29
TATTATTTTAGAATGCGTACTTATAAAATATTTTAT [XGTACX_site867] | 8.59 ± 0.35
TTAAATTATTAGAGAGTGCATTATATATATTATACA [GTGCAC_site9711] | 8.53 ± 0.19
TACTGTTATAAATGTGGTACTAATATTATACATATA [XGTACX_site5116] | 8.45 ± 0.35
GTGTGATGGTCCAATATACACACTTAAAAAAAAAAA [CACACA_site2426] | 8.29 ± 0.42

Sequence | gcPBM binding intensity (ln)
AATTGTTAATGGTACGAACACACATATAAAGATGCA [CACACA_site2043] | 8.99 ± 0.38
AGAATTAAAATAATACGTACACACATGTATAATACA [XGTACX_site1878] | 8.71 ± 0.33
ATTATATCTATAATATGTACATATTATAATATATAT [XGTACX_site3211] | 8.52 ± 0.28
TGTACAATATAAGGAGCACACAAAAATGGATAAATA [CACACA_site8216] | 9.04 ± 0.46
ATTTTATTTTATTAAGTGCAAAAAAAAAAAAAGAAA | 8.755 ± 0.035
ACCTCTCATATGTTATAAACAAAATGAAAATTTCAT [XGTACX_negctrl_site303] | 8.88 ± 0.41
ATATGGCATAAAACATGTACATGTTCATAAATATAT [XGTACX_site1924] | 8.82 ± 0.36
AAAAAAAAAAAAAAAAGTACATGCCATATATTTTCA [XGTACX_site4580] | 8.7 ± 0.11
TTTTTTATCTAATATTTTATAATTTTCATAAATTTG [GTGCAC_negctrl_site534] | 8.12 ± 0.21
GCTAGTTCATAAAATTGTACAAAAAAAAAAAAAAAA [XGTACX_site2223] | 8.23 ± 0.28
TAAATAATGTTAAACACACATACCGATATATAATTA [CACACA_site2711] | 8.48 ± 0.47
AAATAATCTATACACAACGTATAAGAATAATATATG [TGCATGCA_negctrl_site422] | 8.55 ± 0.33
AATAGAAACATTTTACATGTATATATAATTTTTTTT [XGTACX_negctrl_site190] | 8.2 ± 0.3
TATACAGACAGACACACACACATATATATATATATA [CACACA_site1734] | 10.1 ± 0.42
TATATATAAGAAAAAAGTACAGATATATATATATTC [XGTACX_site4788] | 8.82 ± 0.37
AAATTTTCACTTCAAAAACACACGTATTTTTTTCCT [CACACA_site3813] | 8.73 ± 0.47
TGTTATATTATAACTACACACGTATTATGTTATATC [CACACA_site839] | 8.4 ± 0.48
TTTTAAGAAAAAAAATGTACACATGAAAATAGTGAA [XGTACX_site5898] | 8.56 ± 0.38
CCTAAATAATATCTATCACACACGCATATATACATA [CACACA_site8838] | 8.49 ± 0.48
